Results reported in the antibiotic and cytotoxicity screens of Wong et al. (2023).
Some of the results follow.

These compounds were tested on S. aureus RN4220 (assay: growth inhibition call (relative growth <= 0.2)). Settings: 50 µM.

Growth inhibition call, inactive:
C[C@H]1CCCCO[C@H](CN(C)C(=O)Cc2ccccc2)[C@@H](C)CN([C@@H](C)CO)C(=O)c2cc(NC(=O)c3ccccc3)ccc2O1
C[C@@H]1CN([C@H](C)CO)C(=O)c2cc(NC(=O)Nc3ccc(C(F)(F)F)cc3)ccc2O[C@@H](C)CCCCO[C@H]1CN(C)Cc1ccc(Cl)c(Cl)c1
Cn1cnc(=N)c2[nH]cnc21
CO[C@@H](CN(C)C(=O)Nc1ccc(C(F)(F)F)cc1)[C@H](C)CN(Cc1ccccc1Cl)[C@@H](C)CO
C[C@@H]1CCCCO[C@@H](CN(C)CC2CCCCC2)[C@H](C)CN([C@@H](C)CO)C(=O)c2cc(N(C)C)ccc2O1
CN(C)CCCNC(=O)C[C@@H]1CC[C@@H](NS(=O)(=O)c2ccccc2)[C@H](CO)O1
C[C@@H]1CN([C@H](C)CO)C(=O)c2cc(NC(=O)CCC(F)(F)F)ccc2O[C@@H](C)CCCCO[C@@H]1CN(C)S(=O)(=O)c1cccs1
C[C@H](CO)N1C[C@H](C)[C@H](CN(C)C(=O)Nc2ccc(F)cc2)OCCCC[C@H](C)Oc2ccc(NS(=O)(=O)c3ccc(Cl)cc3)cc2C1=O
C[C@H](CO)N1C[C@H](C)[C@@H](CN(C)C(=O)Nc2ccccc2)OCCCC[C@H](C)Oc2ccc(NC(=O)Nc3cccc4ccccc34)cc2C1=O
NCC1OC(OC2C(N)CC(N)C(O)C2OC2OC(CO)C(O)C2O)C(N)C(O)C1O.O=S(=O)(O)O (centres undefined)
Cn1cnc(CCNC(=O)C[C@@H]2CC[C@H]3[C@@H](COC[C@H](O)CN3C(=O)Nc3ccc(Cl)cc3)O2)c1
CCC(=O)OC(OP(=O)(CCCCc1ccccc1)CC(=O)N1CC(C2CCCCC2)CC1C(=O)[O-])C(C)C.[Na+] (centres undefined)
CCOc1cc(OCC)cc(C(=O)N[C@@H](Cc2ccc(-n3cc(-c4ccc(C(=O)NO)s4)nn3)cc2)C(=O)OC)c1
CC(C)NC(=O)Nc1ccc2c(c1)C(=O)N(C)[C@H]1CC[C@H](CC(=O)NCc3ccc(F)cc3)O[C@H]1CO2
C[C@@H]1CN([C@H](C)CO)C(=O)CCCn2cc(nn2)CO[C@@H]1CN(C)C(=O)c1ccc(N2CCN(C)CC2)cc1
C[C@@H]1CN([C@@H](C)CO)C(=O)c2cc(NC(=O)Cn3cnnn3)ccc2O[C@H]1CN(C)C(=O)Nc1ccc(C(F)(F)F)cc1
CC(C)NC(=O)Nc1ccc2c(c1)C(=O)N([C@H](C)CO)C[C@H](C)[C@H](CN(C)Cc1ccc3c(c1)OCO3)O2
CCCCOc1ccc(C(=O)C2=C(O)C(=O)N(Cc3cccnc3)[C@H]2c2ccc(O)c(OCC)c2)c(C)c1
CC(C)C[C@@H]1NC(=O)[C@H]2C[C@@H](C(=O)NCCCCCCNC(=O)CS)[C@@H](c3ccc(O)cc3)N2C1=O
COc1ccc(S(=O)(=O)Nc2cccc3c2O[C@H](CN(C)Cc2ccc(Cl)c(Cl)c2)[C@H](C)CN([C@H](C)CO)C3=O)cc1
CN1CCN(C(=O)C[C@@H]2CC[C@H]3[C@@H](COC[C@H](O)CN3C(=O)Nc3cc(Cl)cc(Cl)c3)O2)CC1
C[C@@H]1CN([C@@H](C)CO)C(=O)c2c(c3ccccc3n2C)-c2ccccc2CO[C@@H]1CN(C)Cc1ccc(-c2ccccc2)cc1
C[C@H]1CN([C@@H](C)CO)C(=O)Cc2cc(NC(=O)CCN3CCOCC3)ccc2O[C@@H]1CN(C)S(=O)(=O)c1cn(C)cn1
COCC#Cc1cnc2c(c1)C(=O)N([C@H](C)CO)C[C@H](C)[C@@H](CN(C)C(=O)CN1CCOCC1)O2
C[C@@H]1CN([C@H](C)CO)C(=O)c2cc(NS(=O)(=O)c3cn(C)cn3)ccc2O[C@@H](C)CCCCO[C@@H]1CN(C)S(=O)(=O)c1ccc(F)cc1
O=S(=O)(NCC[C@H]1CC[C@@H](NS(=O)(=O)c2cccc(Cl)c2)[C@@H](CO)O1)c1cccc(F)c1
Cn1c([N+](=O)[O-])cnc1COC(N)=O
CC(C)NC(=O)N(C)C[C@@H]1Oc2ccc(NC(=O)NC3CCCCC3)cc2C(=O)N([C@H](C)CO)C[C@@H]1C
Cc1ccc(S(=O)(=O)N(C)C[C@@H]2OCCCC[C@@H](C)Oc3ccc(NS(=O)(=O)c4ccc(Cl)cc4)cc3C(=O)N([C@H](C)CO)C[C@@H]2C)cc1
